Screen size: about 350,000 compounds; about 260 (0.074%) were called active. Inconclusive results, whose numbers are uncertain, are shown with a selection of clear calls. Calls follow the shape of the dose curve; as a rule, active = well fitted inhibition curve with a large enough effect; inconclusive = small, poorly fitted or top-dose-only effect; inactive = no such curve, though single readings can be large or run the other way. Where the call is inconclusive, the potency comes from a doubtful curve fit.
target: Ferritin light chain (Equus caballus) (UniProt P02791); assay: qHTS Assay for Identification of Novel General Anesthetics; settings: apoferritin/1-aminoanthracene competitive binding, fluorescence; activity change, negative = displacement: at 77.5 µM (top of the series); also: nearly all actives have a fitted effect of over 20% in size
Chain of UniProt P02791 (P02791 whole entry, looked up): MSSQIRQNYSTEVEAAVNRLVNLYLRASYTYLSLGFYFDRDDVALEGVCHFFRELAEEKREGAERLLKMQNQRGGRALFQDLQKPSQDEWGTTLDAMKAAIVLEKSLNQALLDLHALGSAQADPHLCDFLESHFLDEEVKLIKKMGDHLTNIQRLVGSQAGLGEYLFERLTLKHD
Excerpt: Source: NIH Chemical Genomics Center [NCGC]
Assay Submitter: Roderic Eckenhoff, University of Pennsylvania
Screening Center PI: Christopher P. Austin, NIH
Probe Development: NIH Chemical Genomics Center [NCGC]
Anesthetic development has remained a largely empirical process. There are growing concerns about the cognitive effects of known general anesthetics and acceleration of the onset of neurodegenerative disease. The compounds' toxicity and multiple specific binding targets in the mammalian brain [4] has made them less attractive as drug leads. In this assay, a GABAergic mimetic model system, apoferritin and a profluorescent 1-aminoanthracene ligand (1-AMA), was used to construct a competitive binding assay for identification of novel general anesthetics. The assay was validated for 1-AMA using other known anesthetics, such as isoflurane (CID:3763) and propofol (CID: 4943), [6].
[1] S.L. Bianchi, T. Tran, C. Liu, S. Lin, Y. Li, J.M. Keller, R.G. Eckenhoff, and M.F. Eckenhoff, Brain and behavior changes in 12-month-old Tg2576 and nontransgenic mice exposed to anesthetics. Neurobiol Aging 29 (2008) 1002-10.
[2] Z. Xie, Y. Dong, U. Maeda, R.D. Moir, W. Xia, D.J. Culley, G. Crosby, and R.E. Tanzi, The inhalation anesthetic isoflurane induces a vicious cycle of apoptosis and amyloid beta-protein accumulation. J Neurosci 27 (2007) 1247-54.
[3] P. Honegger, and J.M. Matthieu, Selective toxicity of the general anesthetic propofol for GABAergic neurons in rat brain cell cultures.
[4] M.F. Eckenhoff, K. Chan, and R.G. Eckenhoff, Multiple specific binding targets for inhaled anesthetics in the mammalian brain. J Pharmacol Exp Ther 300 (2002) 172-9.
[5] C.A. Butts, J. Xi, G. Brannigan, A.A. Saad, S.P. Venkatachalan, R.A. Pearce, M.L. Klein, R.G. Eckenhoff, and I.J. Dmochowski, Identification of a fluorescent general anesthetic, 1-aminoanthracene. Proc Natl Acad Sci U S A 106 (2009) 6501-6.
[6] W.A. Lea, J. Xi, A. Jadhav, L. Lu, C.P. Austin, A. Simeonov, and R.G. Eckenhoff, A high-throughput approach for identification of novel general anesthetics. PLoS One 4 (2009) e7150.
Three uL of reagents (free 1-AMA (50% saturated solution of 1-aminoanthracene
in PBS) in columns 3, 4 as negative control and 1-AMA/apoferritin mixture (10 uM horse-spleen apoferritin in 50% saturated 1-aminoanthracene in PBS) in columns 1, 2, 5-48) was dispensed into 1536-well Greiner black assay plates. Compounds (23 nL) were transferred via Kalypsys pintool equipped with 1,536-pin array (10 nL slotted pins, V&P Scientific, San Diego, CA). Titration of the positive control, propofol, were delivered via pin transfer from separate control plates to the 2nd column of each assay plate. The starting concentration of the control, dissolved in DMSO, was at 160 mM, followed by two-fold dilution points in duplicate, for a total of 16 concentrations. The plates were incubated for 10 min at room temperature, and then read on an EnVision HTS multilabel reader (Perkin-Elmer, Waltham, MA) (end point read, 3 min/plate) using Fura2 BFP excitation filter (380 nm, bandwidth 10 nm) and fluorescein emission filter (535 nm, bandwidth 25 nm) set. A LANCE/DELFIA dichroic mirror with a cutoff wavelength at 400 nm was used to maximize signal accuracy and strength. Vehicle-only plates, with DMSO being pin-transferred to the entire column 5-48 compound area, were inserted uniformly at the beginning and the end of each library in order to monitor for and record any shifts in the background. Activity was computed as the normalized fluorescence response relative to free 1-AMA and 1-AMA/apoferritin complex values. Concentration-effect relationships were derived by using curve fitting algorithms developed in-house (http://ncgc.nih.gov/pub/openhts/). A four parameter Hill equation was fitted to the concentration-response data by minimizing the residual error between the modeled and observed responses.
% is scaled to controls: 0 for no effect and ±100 for the full control effect; potency is read from the fitted curve at half-maximal effect; tags tell the direction and shape of the fitted curve.

Row | Structure (SMILES) | Potency | activity change, negative = displacement
1 | Cc1cc(C)c(OCCCCNCc2ccccc2)c(Cl)c1 | inconclusive: 28.2 µM [inhibitor, partial curve] | 
2 | COc1cccc(NC(=O)Cn2c(-c3cncs3)nc3ccccc32)c1 |  | inactive: -12.8%
3 | Cc1ccc(S(=O)(=O)c2nnn3c2nc(NC2CCCCC2)c2sccc23)cc1 | inconclusive: 7.08 µM [inhibitor, full curve] | 
4 | COc1ccc(C2CC(c3c(-c4ccccc4)c4cc(Cl)ccc4[nH]c3=O)=NN2S(C)(=O)=O)cc1 (stereo not given) | inconclusive: 3.16 µM [inhibitor, full curve, poor fit] | 
5 | CN(C)S(=O)(=O)c1ccc2c(c1)nnn2CCNC(=O)Nc1ccc(Cl)cc1 |  | inactive: 0.321%
6 | Cc1cc(C)cc(C(=O)/C=C2\NC(=O)CS2)c1 | inconclusive: 44.7 µM [inhibitor, partial curve, poor fit] | 
7 | Cc1ccc(C(=O)C(c2ccccc2)N2Cc3ccccc3C2=N)cc1 (stereo not given) |  | inactive: 37.5%
8 | CCCC(=O)OCCNc1cc(SCc2ccco2)c2nonc2c1[N+](=O)[O-] | inconclusive: 56.2 µM [inhibitor, single point] | 
9 | O=C(Nc1cccc(Cl)c1)OC1CCCCc2cccnc21 (stereo not given) | inconclusive: 50.1 µM [inhibitor, single point] | 
10 | CCOC(=O)C(C)Sc1nnc(-c2c[nH]c3ccccc23)n1C (stereo not given) | inconclusive: 35.5 µM [inhibitor, partial curve] | 
11 | O=C(NCc1ccc(F)cc1)C1CC(=O)N(C2CCCCCCC2)C1 (stereo not given) | inconclusive: 25.1 µM [inhibitor, partial curve] | 
12 | Cc1cc(C)nc(Nc2ccc(C)c([N+](=O)[O-])c2)n1 | inconclusive: 28.2 µM [inhibitor, partial curve] | 
13 | Cc1cccc(OCCCC(=O)Nc2ccccc2C(F)(F)F)c1 | inconclusive: 28.2 µM [inhibitor, single point] | 
14 | Cc1ccc(S(=O)(=O)NCCCNS(C)(=O)=O)cc1 |  | inactive: -6.36%
15 | CCOC(=O)CN(C(=O)c1snc(C(N)=O)c1N)C(C(=O)NC1CCCCC1)c1ccc(F)cc1 (stereo not given) | inconclusive: 31.6 µM [inhibitor, single point] | 
16 | COc1ccsc1NC(=O)OCc1ccc(Cl)cc1 |  | inactive: -11.3%
17 | CC(Sc1n[nH]c(N)n1)C(=O)C12CC3CC(CC(C3)C1)C2 (stereo not given) | inconclusive: 39.8 µM [inhibitor, partial curve] | 
18 | Cc1ccc(C(=O)NNS(=O)(=O)c2ccccc2[N+](=O)[O-])cc1 |  | inactive: 10%
19 | Cc1ccc(-n2ncc3c(N4CCCC4)ncnc32)c(C)c1 | inconclusive: 10 µM [inhibitor, partial curve] | 
20 | Cc1ccc(Cl)cc1NC(=O)COC(=O)C1CCCC1 | inconclusive: 25.1 µM [inhibitor, partial curve] | 
21 | C/C=C\C(=O)Nc1cccc(C2=NOC3(C2)C[C@@H](C(N)=O)N(C(=O)C2(C)CC2)C3)c1 (stereo not given in full) |  | inactive: -9.82%
22 | O=C(Nc1ccc([N+](=O)[O-])cc1)N1CCCCCC1 | inconclusive: 35.5 µM [inhibitor, partial curve] | 
23 | O=C(CCC1CCCCC1)NC1=NCCS1 | inconclusive: 28.2 µM [inhibitor, single point] | 
24 | Cc1ccc(C(=O)N/C(=C\c2ccc(Br)cc2)c2nc(=S)[nH][nH]2)cc1 | inconclusive: 28.2 µM [inhibitor, partial curve] | 

Row | Structure (SMILES) | Potency | activity change, negative = displacement
25 | Cc1ccccc1Cn1ccc(-c2ccc(Cl)cc2)c(C#N)c1=O |  | inactive: 5.26%
26 | CCS(=O)(=O)N1CCc2cc(C(=O)Nc3cccc(C(C)=O)c3)ccc21 | inconclusive: 4.47 µM [inhibitor, full curve] | 
27 | O=C1C2C3C=CC(C3)C2C(=O)N1CNc1ccccc1 (stereo not given) |  | inactive: -22.5%
28 | CC(Oc1ccc(Cl)cc1)c1ccn[nH]1 (stereo not given) | inconclusive: 35.5 µM [inhibitor, partial curve] | 
29 | CCOC(=O)c1cc2sccc2n1CC(=O)Nc1ccc(OC)c(OC)c1 | inconclusive: 15.8 µM [inhibitor, partial curve] | 
30 | O=C(Cn1nc(-c2ccc(Cl)cc2)c2ccccc2c1=O)Nc1cccc(C(F)(F)F)c1 | inconclusive: 3.55 µM [inhibitor, full curve] | 
31 | CCCCCCCCC(=O)N/N=C(\C)c1ccc(O)cc1O | inconclusive: 11.2 µM [inhibitor, partial curve] | 
32 | S=c1[nH]nc(-c2ccc(Br)o2)n1Cc1ccccc1 |  | inactive: -12.6%
33 | CC(C)C(NC(=O)c1ccc(C(C)(C)C)cc1)C(=O)NC1=NCCS1 (stereo not given) | inconclusive: 39.8 µM [inhibitor, partial curve] | 
34 | CCOC(=O)C1CCN(c2ccccc2CN2CCN(c3ccccc3OCC)CC2)CC1 |  | inactive: -6.75%
35 | CCOc1ccccc1-c1nnc2n1N=C(c1ccc(OC)c(OC)c1)CS2 |  | inactive: -20.6%
36 | CSc1nc(Nc2ccc(Cl)cc2)c(C#N)c(=O)[nH]1 |  | inactive: -7.96%
37 | Cc1cc(C)cc(Nc2cc(C(=O)NCCCN(C)C3CCCCC3)c3ccccc3n2)c1 | inconclusive: 11.2 µM [inhibitor, partial curve] | 
38 | NC(=O)c1ccsc1NC(=O)CCc1ccccc1 | inconclusive: 22.4 µM [inhibitor, partial curve] | 
39 | O=C(/C=C/c1ccco1)Nc1nc(-c2ccccn2)cs1 |  | inactive: -13.2%
40 | c1ccc(CSc2ncnc3sccc23)cc1 | inconclusive: 20 µM [inhibitor, partial curve] | 
41 | Nc1nnc(CSCc2ccc(Cl)cc2)s1 | inconclusive: 50.1 µM [inhibitor, single point] | 
42 | COc1ccc(C2=CC(=O)C=CC2=O)cc1 | inconclusive: 12.6 µM [inhibitor, partial curve] | 
43 | COc1ccc(C(=O)CN2C(=O)c3ccccc3C2=O)c(OC)c1C | inconclusive: 50.1 µM [inhibitor, single point] | 
44 | CCn1c(=O)c(C(=O)Nc2ccccc2S(N)(=O)=O)c(O)c2ccccc21 | inconclusive: 28.2 µM [inhibitor, single point] | 
45 | Cc1cc(C)cc(NC(=O)c2ccc(N3C(=O)C4CCCCC4C3=O)cc2)c1 (stereo not given) | inconclusive: 10 µM [inhibitor, partial curve] | 
46 | COc1ccc(-c2nnc(NC(=O)C(C)C)o2)cc1 |  | inactive: -2.11%
47 | O=[N+]([O-])c1cc(F)c(N2CCOCC2)cc1N1CCCCC1 | inconclusive: 31.6 µM [inhibitor, partial curve] | 
48 | C/C(=N\NC(=O)CSCc1ccc([N+](=O)[O-])cc1)c1ccccc1 | inconclusive: 22.4 µM [inhibitor, partial curve] | 

Row | Structure (SMILES) | Potency | activity change, negative = displacement
49 | Cc1ccc(NC(=O)CCC(=O)OCC(=O)c2ccc(Oc3ccc([N+](=O)[O-])cc3)cc2)cc1C | inconclusive: 12.6 µM [inhibitor, partial curve] | 
50 | CC1(C)C2CCC13CS(=O)(=O)N[C@@H]3C2 (stereo not given in full) | inconclusive: 35.5 µM [inhibitor, single point] | 
51 | O=C(CCSCc1ccccc1F)NCCc1ccccc1 | inconclusive: 22.4 µM [inhibitor, partial curve] | 
52 | CCN(CC)S(=O)(=O)c1ccc2oc(C(=O)N3CCCCCC3)c(C)c2c1 | inconclusive: 35.5 µM [inhibitor, single point] | 
53 | COc1ccc(NS(=O)(=O)c2ccc3[nH]c(=O)ccc3c2)cc1OC | inconclusive: 11.2 µM [inhibitor, full curve, poor fit] | 
54 | COc1ccc(/C=C2\Cc3ccccc3C2=O)cc1OC |  | inactive: -11%
55 | CC(=O)c1cccc(NC(=O)C2CCCCC2)c1 | inconclusive: 28.2 µM [inhibitor, single point] | 
56 | COc1cc(OC)cc(C(=O)Nc2ccc3nc4n(c(=O)c3c2)CCCCC4)c1 | inactive | 
57 | Cc1ccc(SCCC(=O)OCC(=O)Nc2ncc(Cl)cc2Cl)cc1 | inconclusive: 28.2 µM [inhibitor, partial curve] | 
58 | Fc1cccc(/C=N/Nc2nc3ccccc3[nH]2)c1 |  | inactive: 2.23%
59 | O=C(Cc1cccs1)Nc1ccc(-c2nc3ccccc3[nH]2)cc1 |  | inactive: -12.1%
60 | CCOC(=O)C1=C(C)N=C2SCCC(=O)N2C1c1ccc(OCc2ccccc2)c(OC)c1 (stereo not given) | inconclusive: 7.94 µM [inhibitor, partial curve] | 
61 | COCCOC(=O)c1ccc(NC(=O)COc2ccc([N+](=O)[O-])cc2)cc1 | inconclusive: 17.8 µM [inhibitor, partial curve] | 
62 | COC(=O)c1sccc1S(=O)(=O)N(CC(=O)NCc1ccc(C)cc1)c1ccc(C)c(C)c1 |  | inactive: -14.6%
63 | CC(=O)c1cccc(NC(=O)Cn2nc(-c3ccc(Cl)cc3)ccc2=O)c1 | inconclusive: 11.2 µM [inhibitor, partial curve] | 
64 | COc1ccc([N+](=O)[O-])cc1/C=N/NC(=O)CNC(=O)c1cccc(F)c1 | inconclusive: 44.7 µM [inhibitor, partial curve] | 
65 | COc1ccc(C)cc1NCc1ccc([N+](=O)[O-])cc1 | inconclusive: 28.2 µM [inhibitor, partial curve] | 
66 | O=C(COC(=O)c1cnccn1)c1ccc2c(c1)CCCC2 | inconclusive: 7.08 µM [inhibitor, partial curve] | 
67 | CC(C)(C)c1ccc(-c2csc(NNC3=NCCCCC3)n2)cc1 | inconclusive: 28.2 µM [inhibitor, partial curve] | 
68 | Cc1cccc(C(=O)N(Cc2nc3ccccc3c(=O)[nH]2)C2CCCCC2)c1 | inconclusive: 28.2 µM [inhibitor, partial curve] | 
69 | CC(C)(C)c1cnnn1-c1cccc([N+](=O)[O-])c1 | inconclusive: 28.2 µM [inhibitor, single point] | 
70 | O=C(COc1cccc2c1CCN(Cc1ccccc1F)C2=O)N1CCCCC1 | inconclusive: 35.5 µM [inhibitor, single point] | 
